SMILES strings stand for the structures. Out of some 110,000 compounds screened, about 230 (0.21%) showed an effect of 50% or more. Some of the results follow.
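Also: 30 min substrate incubation versus DMSO and 10 µM JCP410 controls.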

In this test the target is DPAP1 (Plasmodium falciparum, UniProt Q8IIJ9). Nature of the test: primary screen, percent inhibition; read by cleavage of a fluorogenic dipeptide substrate; higher = more effect of the substance. Details: species or system P. falciparum D10 trophozoite lysates; single well.
Sequence of DPAP1 (Q8IIJ9 whole entry, looked up): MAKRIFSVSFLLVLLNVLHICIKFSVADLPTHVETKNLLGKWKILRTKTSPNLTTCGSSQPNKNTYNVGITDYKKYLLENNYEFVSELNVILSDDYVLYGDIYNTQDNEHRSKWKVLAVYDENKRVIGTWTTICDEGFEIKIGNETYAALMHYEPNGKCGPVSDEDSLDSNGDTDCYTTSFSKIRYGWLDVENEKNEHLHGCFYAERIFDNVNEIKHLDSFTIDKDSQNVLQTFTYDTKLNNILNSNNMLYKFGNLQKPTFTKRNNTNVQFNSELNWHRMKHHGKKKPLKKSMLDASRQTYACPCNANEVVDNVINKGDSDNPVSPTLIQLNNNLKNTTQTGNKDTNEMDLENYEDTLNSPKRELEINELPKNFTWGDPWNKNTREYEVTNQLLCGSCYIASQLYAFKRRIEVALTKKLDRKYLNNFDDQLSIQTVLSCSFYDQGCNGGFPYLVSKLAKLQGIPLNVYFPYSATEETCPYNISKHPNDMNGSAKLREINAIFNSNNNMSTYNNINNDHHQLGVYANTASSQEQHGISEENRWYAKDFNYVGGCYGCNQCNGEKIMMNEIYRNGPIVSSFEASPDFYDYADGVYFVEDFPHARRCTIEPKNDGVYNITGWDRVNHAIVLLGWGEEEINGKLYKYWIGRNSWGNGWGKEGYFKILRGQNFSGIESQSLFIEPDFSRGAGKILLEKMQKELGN
On to `N#CC1=C(N)Oc2cc(N)ccc2C1c1ccccc1C(F)(F)F` (stereo not shown), for which the “% Inhibition @ 10 uM” value is -5.65%.
Take `CC1=CC2=NC(Cc3ccccc3)(NC(=O)c3ccccc3)C(=O)N2C=C1` (stereo not shown): the “% Inhibition @ 10 uM” value was -0.637%.
Take `CCc1c(C)sc(NC(=O)c2cccnc2)c1C(N)=O`: the “% Inhibition @ 10 uM” value is -1.36%.
For `Cc1cccc(C(=O)N2CCN(c3cccc(Cl)c3)CC2)c1` the value was -3.27%.
With `COc1ccc(/C=C2\C(=O)NC(=O)N(Cc3ccc(F)cc3)C2=O)c(OC)c1` the figure was -4.91%; with `O=c1nc(N2CCCCC2)sc2c1sc1ccccc12`, -4.58%; with `CC(=O)NCCCCCc1nc2ccccc2n1C`, -3.49%.
`CC[C@@H](C)[C@H](NC(=O)OCc1ccccc1)C(=O)N[C@@H](CCc1ccccc1)C(=O)CO`: the “% Inhibition @ 10 uM” value was determined as 5.05%.
For `Cc1cccc(/C=C(\C#N)c2nc3ccccc3[nH]2)c1O` the value was -0.305%.
For the molecule `Oc1ccc(CNc2ccccc2Br)c2cccnc12`, the “% Inhibition @ 10 uM” value was -9.98%.
For `COc1ccc(NS(=O)(=O)c2cccc(C(=O)Nc3cccc(C)c3)c2)cc1` the value was 1.64%.
As for `O=c1cccc2n1C[C@H]1C[C@@H]2CN(Cc2ccc(Br)o2)C1`, the “% Inhibition @ 10 uM” value is -7.39%.
With `O=C(NCCc1c[nH]c2ccccc12)c1nc(-c2ccc(C(F)(F)F)cc2)no1` the figure was 4.57%; with `CCC(C)NC(=O)Cn1c2ccccc2c2cnnc(O)c21` (stereo not shown), 1.38%.
On to `COc1cc(CNc2ccc3[nH]c(O)nc3c2)ccc1OCC(=O)NC(C)(C)C`, for which the “% Inhibition @ 10 uM” value is on record as -15.2%.
With `CCN1CCC(NC(C)COC)CC1` (stereo not shown) the figure was 4.28%; with `O=c1c(=O)c2cc(Cl)ccc2sc2ccccc12`, 2.39%; with `CC1CCN(C(=O)CN(Cc2ccc(Cl)cc2)S(=O)(=O)c2ccc(Cl)cc2)CC1`, -3.65%.
On to `CC(NC(=O)CCC(=O)O)c1ccccc1` (stereo not shown), for which the “% Inhibition @ 10 uM” value is recorded as 3.42%.
Turning to `CC(C)C(=O)Nc1nc(O)c2c(n1)NC(C)C(C)N2C(=O)c1ccc[n+](Cc2ccccc2)c1` (stereo not shown), the “% Inhibition @ 10 uM” value stood at 4.28%.
For `O=S(=O)(Cc1ccccc1)Nc1ccccc1F`, the “% Inhibition @ 10 uM” value amounted to 1.88%.
With `CCC(CC)NC(=O)C1C2C=CC(C2)C1C(=O)O` (stereo not shown), the “% Inhibition @ 10 uM” value was determined as 2.84%.
With `CC1=C(C(=O)N2CC(C)CC(C)C2)C2(CCC(C)CC2)OC1=O` (stereo not shown), the “% Inhibition @ 10 uM” value is recorded as -3.7%.
For `O=C(C1CCCN(S(=O)(=O)c2cccs2)C1)N1CCn2c1cc1ccccc12` (stereo not shown) the value was -2.17%; for `Cc1ccc(C)c(OCCCN2CCNCC2)c1`, 3.52%; for `CC1=CC2=NC(=O)/C(=C\C=C\c3ccccc3)C(=N)N2O1`, 3.63%.
On to `CCc1[nH]nc2c1C1(C(=O)Nc3ccc(Cl)cc31)C(C#N)=C(N)O2` (stereo not shown), for which the “% Inhibition @ 10 uM” value is recorded as -2.77%.
`Clc1ccc(Cn2ncc3c(N4CCCCC4)ncnc32)cc1`: the “% Inhibition @ 10 uM” value is recorded as -3.72%.
`COc1ccc(OC)c(-c2nc(O)c3c(n2)Oc2c(cc(Br)cc2OC)C3)c1`: the “% Inhibition @ 10 uM” value is given as -2.84%.
For `CCN1C(=O)/C(=C\c2cc(C)n(-c3cc(Cl)ccc3C)c2C)C(C(=O)OC)=C1C` the value was -3.63%; for `CCC(C)c1ccccc1OCC(=O)Nc1sc(C)c(C)c1C(N)=O` (stereo not shown), 5.24%; for `COc1ccc(CCNC(=O)COc2ccc(-c3nc4c(=O)n(C)c(=O)n(C)c4[nH]3)cc2)cc1OC`, -3.33%.
In the case of `CCN(CC)c1ccc(NC(=O)c2ccoc2C)cc1`, the “% Inhibition @ 10 uM” value was 4.52%.
With `O=C(O)C1C2C=CC(O2)C1C(=O)Nc1ccc(F)c(Cl)c1` (stereo not shown), the “% Inhibition @ 10 uM” value was 0.431%.
On to `COc1ccc(NC(=O)c2sc3nc(-c4cccs4)ccc3c2N)cc1OC`, for which the “% Inhibition @ 10 uM” value is -3.39%.
Consider `C#CCOc1ccc(C=C2C(=O)c3ccccc3C2=O)cc1`, for which the “% Inhibition @ 10 uM” value is 3.79%.
Consider `Cc1ccc(C)c(S(=O)(=O)Nc2ccc(C(=O)Nc3ccccc3F)cc2)c1`, for which the “% Inhibition @ 10 uM” value was -1.04%.
Take `CC(Cc1ccccc1F)NCc1ccccn1` (stereo not shown): the “% Inhibition @ 10 uM” value was -1.42%.
On to `O=C(COc1ccc(Br)cc1)N1CCN(c2ccc(F)cc2)CC1`, for which the “% Inhibition @ 10 uM” value was found to be 0.993%.
With `CSc1nc2c(c(=O)n1CC1CCCCC1)C1(CCCCC1)Cc1ccccc1-2` the figure was -7.54%; with `CCN(CC)CCn1c(NC(=O)c2ccc(Br)cc2)nc2ccccc21`, -0.216%.
For `O=C(OCCCNc1nc(-c2ccc(Cl)cc2)nc2ccccc12)c1ccncc1` the value was 1.52%; for `CCOC(=O)C1=C(O)/C(=C\c2ccc(C(C)C)cc2)N=C1C`, -1.6%.
For `COc1ccc(C(=O)Nc2cccc(NC(C)=O)c2)cc1OC` the value was -8.76%.
Take `Cc1cc(C)c2nc(N3CCC(C(=O)NCc4cccc(Cl)c4)CC3)sc2c1`: the “% Inhibition @ 10 uM” value is -1.58%.
Turning to `Cn1c(=O)c2c(nc(Sc3nc4ccccc4n3CC(=O)NC3CCCCC3)n2C)n(C)c1=O`, the “% Inhibition @ 10 uM” value is 3.99%.
In the case of `CC(=O)Nc1ccc(CN2CCN(Cc3ccccc3)CC2)cc1`, the “% Inhibition @ 10 uM” value was -4.35%.
With `CCCN(CCC)C(=O)CSc1nc2ccncc2[nH]1` the figure was 4.83%; with `COCCNc1nc2c(-c3cccc(C(F)(F)F)c3)nnn2c2ccccc12`, 2.04%.
In the case of `O=S(=O)(NCc1ccco1)c1ccc2[nH]c3c(c2c1)CCCC3`, the “% Inhibition @ 10 uM” value is reported as -9.17%.
For `CCOC(=O)C1=C(C)N=C(C)/C(=C(/O)OCC)C1c1ccc(C)cc1` (stereo not shown) the value was 3.76%; for `O=C(C1=C(O)C(=O)N(CCN2CCOCC2)C1c1cccnc1)c1cc2ccccc2o1` (stereo not shown), -4.39%.
Take `COC(=O)c1ccc(Oc2nc3c(c(=O)n(C)c(=O)n3C)n2Cc2ccc(C#N)cc2)cc1`: the “% Inhibition @ 10 uM” value is -1.03%.
For `N=c1c(C(=O)NCCN2CCOCC2)cc2c(=O)n3ccccc3nc2n1C1CCCC1` the value was 1.97%; for `O=c1ccc2ccc(OCc3ccccc3Cl)cc2o1`, 3.06%.
As for `O=C(O)c1ccccc1Nc1ccc(Cl)cc1`, the “% Inhibition @ 10 uM” value is given as -6.49%.
With `O=c1c2nccnc2nc(SCc2cccc(F)c2)n1CCc1c[nH]c2ccccc12` the figure was -2.79%.
Take `Cc1nn(C)cc1NC(=O)CC12CC3CC(CC(C3)C1)C2`: the “% Inhibition @ 10 uM” value was -4.35%.
As to `CCOc1ccc(Sc2cc(C(=O)NCC3CCCO3)c3ccccc3n2)cc1` (stereo not shown), the “% Inhibition @ 10 uM” value was -0.0542%.
With `CS(=O)(=O)N(CC(=O)NC1CCCC1)c1ccc(Oc2ccccc2)cc1`, the “% Inhibition @ 10 uM” value is reported as -5.13%.
With `O=C1C2C3C=CC(CO)(O3)C2C(=O)N1c1cc(Cl)ccc1Cl` (stereo not shown) the figure was 2.65%; with `c1ccc2[nH]c(NCCN3CCOCC3)nc2c1`, -3.33%.
For `Cc1ccc(O)c(CCc2ccc(O)c(O)c2)n1` the value was 1.29%.
With `COc1ccc(/C=C2\Cc3ccccc3C2=O)cc1Br` the figure was 4.79%; with `O=C(NCCN1CCC(Cc2ccccc2)CC1)C(c1ccccc1)N1Cc2ccccc2C1=O` (stereo not shown), -1.58%; with `Cc1cc(CNC(=O)c2ccc(Br)o2)c2ccccc2n1`, -0.834%.
Turning to `CCCC1=C(C(=O)OCC)C(c2cccs2)C(C#N)=C(N)O1` (stereo not shown), the “% Inhibition @ 10 uM” value is given as 2.82%.
With `CCOC(=O)c1c(N)sc(C(=O)N2CCOCC2)c1C` the figure was -1.82%; with `CC1CCCCC1NC(=O)CN(C)S(=O)(=O)c1cccc2nsnc12` (stereo not shown), -2.17%.
In the case of `CC(C)(C)c1cc(CN2CCOCC2)c(O)c(C(C)(C)C)c1`, the “% Inhibition @ 10 uM” value is recorded as -0.0217%.
For the molecule `Cc1cccc(NCc2ccc(Cl)cc2)n1`, the “% Inhibition @ 10 uM” value is recorded as 1.19%.
For `Cc1ccc(NC(=O)C2CC(=O)N(c3ccc(C)c(C)c3)C2)c(C)c1` (stereo not shown) the value was -2.29%; for `C=CCNC(=O)C1CCN(S(=O)(=O)CC)CC1`, 0.514%.
For `CN1CC[C@@]2(O)CCCC[C@@H]2[C@H]1c1ccc(Cl)cc1Cl` the value was -0.771%; for `COc1ccc(CCNC(=O)CSc2nncn3c2cc2occc23)cc1OC`, -1.67%.
For `CC1(C)CC(=O)C2=C(C1)N(CCCN1CCOCC1)C(=O)C2(NC(=O)c1ccccc1)C(F)(F)F` (stereo not shown) the value was 2.1%; for `Cc1ccc(SCCC(=O)NCc2ccccc2C)cc1`, -7.16%.
As for `COc1ccc(-c2nc(CS(=O)CC(=O)N3CCC4(CC3)OCCO4)c(C)o2)cc1` (stereo not shown), the “% Inhibition @ 10 uM” value came to 0.689%.
As for `COC(=O)c1sc2nccc(N(C)C)c2c1N`, the “% Inhibition @ 10 uM” value was -1.98%.
For `CC(C)c1ccccc1NC(=O)c1cnccn1` the value was -3.74%; for `Cc1ccc(NC(=O)Cn2cc(C#N)c3ccccc32)c(C)c1`, 0.746%.
With `C=CCn1c(=N)c(C(=O)NCc2cccnc2)cc2c(=O)n3cccc(C)c3nc21` the figure was -1.47%; with `Cn1nc(C(=O)N2CC=C(c3ccccc3)CC2)c2c1-c1ccccc1S(=O)(=O)C2`, 5.82%.
As to `CCOc1ccc(NC(=O)CCC(=O)c2ccc(-c3ccccc3)cc2)cc1`, the “% Inhibition @ 10 uM” value is recorded as 1.29%.
For `CSc1ncc(Cl)c(C(=O)Nc2nnc(SCc3ccccc3)s2)n1`, the “% Inhibition @ 10 uM” value was found to be 0.569%.
Take `COC(=O)c1sc(N2C(=O)C(O)=C(C(=O)c3cccs3)C2c2ccc(OC)cc2)nc1C` (stereo not shown): the “% Inhibition @ 10 uM” value was 5.37%.
Regarding `O=C(COc1ccc2ccccc2c1Br)Nc1ccccc1`, the “% Inhibition @ 10 uM” value is given as -0.173%.
As for `O=C(Nc1ccc2c(c1)OCO2)c1ccc2ccccc2c1`, the “% Inhibition @ 10 uM” value is -0.178%.
With `Cc1ccccc1S(=O)(=O)Cc1ccc(C(=O)N2CCC(Cc3ccccc3)CC2)o1` the figure was -1.28%; with `CCCCc1ccc(C2=N/C(=C\c3ccco3)C(=O)O2)cc1`, 0.264%.
For `CCOC(=O)c1cc2c(=O)n3cc(C)ccc3nc2n(CCc2ccccc2)c1=N` the value was -9.1%; for `O=C(OCc1nc2ccccc2s1)c1ccc(F)cc1`, 5.94%; for `COc1ccc(C(=O)N2CCN(Cc3cc(Br)ccc3OC)CC2)cc1`, -1.24%.
`Nc1ncc(Br)cc1S(=O)(=O)N(CCO)Cc1ccccc1`: the “% Inhibition @ 10 uM” value was 0.655%.
Regarding `COc1ccc(NC(=O)COc2ccc(N(C)S(=O)(=O)c3ccc(C)cc3)cc2)cc1`, the “% Inhibition @ 10 uM” value is -7%.
For `O=S(=O)(NC1CCN(Cc2ccccc2)CC1)c1ccc(-n2cccn2)cc1` the value was 9.52%; for `CN(C)S(=O)(=O)c1cccnc1N1CCN(CCO)CC1`, -5.28%; for `COc1ccc(-c2nc3ccccc3[nH]2)cc1`, -1.29%.
With `Cc1cccc(C(=O)Nc2ccccc2C(F)(F)F)c1` the figure was -6.12%; with `CCc1nnc(NC(=O)c2cc3ccccc3c(=O)o2)s1`, 0.221%.

The values are drawn from PMC6919601, “Identification of Plasmodium dipeptidyl aminopeptidase allosteric inhibitors by high throughput screening” (PLoS ONE, 2019).
